# Structures can show the parent of a compound that is named as a salt. ± gives the standard deviation of the averaged measurements. In all, about 3,100 compounds were measured (“mean cytoplasmic OPP incorporation (global translation) relative to DMSO”: median about 100, lowest 2% from about 56 on). This is one part of the list.
# System: U2OS
# Experiment: mean cytoplasmic OPP incorporation (global translation) relative to DMSO (% of DMSO); higher = more protein synthesis
# Settings: 10 µM; 24 h
# Procedure: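 Primary image-based screen in U2OS cells: compounds at 10 uM for 24 h, then a 1 h o-propargyl-puromycin (OPP) pulse, click labelling, and high-throughput microscopy. Mean cytoplasmic OPP intensity and nuclei count were normalised to DMSO wells within each plate (DMSO = 100) and averaged over triplicate plates.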
row,SMILES,mean cytoplasmic OPP incorporation
1,C[C@]12CC[C@@H]3c4ccc(O)cc4CC[C@H]3[C@@H]1CCC2=O [Estrone],101 ± 3.9
2,COC(=O)c1c(-c2cc(OC)c(OC)c(OC)c2)c2ccnc(OCc3ncccn3)c2c(=O)n1Cc1ccnc(C)c1 [T 0156 hydrochloride],101
3,c1ccc(N2CCN(Cc3nc4ccccc4[nH]3)CC2)nc1 [ABT 724 trihydrochloride],92.8
4,CC(C)c1cc(C(=O)N2Cc3ccc(CN4CCN(C)CC4)cc3C2)c(O)cc1O,87.6
5,CCOC(=O)C1=C[C@]2(CC)CCCN3CCc4c(n1c1ccccc41)[C@@H]32 [Vinpocetine],103 ± 16
6,CCOC(=O)C1=C[C@]2(CC)CCCN3CCc4c(n1c1ccccc41)[C@@H]32 [Vinpocetine (Cavinton)],117
7,CNCCC(Oc1ccccc1OC)c1ccccc1 (centres undefined) [Nisoxetine hydrochloride],97.4 ± 6.5
8,CCCCC(C)(O)C/C=C/[C@H]1[C@H](O)CC(=O)[C@@H]1CCCCCCC(=O)OC (mixture of isomers) [Misoprostol],106
9,COc1ccccc1O [Guaiacol],99.2
10,O=NN(CCCl)C(=O)NC1CCCCC1 [Lomustine (CeeNU)],108
11,COc1cc(CCC(C)=O)ccc1O [Vanillylacetone],103
12,O=C(O)CCC(=O)Nc1ccc(S(=O)(=O)Nc2nccs2)cc1 [Succinylsulfathiazole],97.2
13,COc1cnc(NS(=O)(=O)c2ccc(N)cc2)nc1 [Sulfameter],107
14,Cn1cnnc1Sc1c([N+](=O)[O-])ncn1C,97.3
15,Cc1cccc(CN2CCN(C(c3ccccc3)c3ccc(Cl)cc3)CC2)c1 (centres undefined) [Meclozine dihydrochloride],116
16,Cc1nnc(C(C)C)n1C1C[C@H]2CC[C@@H](C1)N2CC[C@H](NC(=O)C1CCC(F)(F)CC1)c1ccccc1 (stereo in doubt) [Maraviroc],117
17,CCCCCCCN(CC)CCCC(O)c1ccc(NS(C)(=O)=O)cc1 (centres undefined) [Ibutilide fumarate],108
18,Cn1c(=O)cc(N2CCC[C@@H](N)C2)n(Cc2ccccc2C#N)c1=O [Alogliptin (SYR-322)],102
19,CS(=O)(=O)CCNCc1nc(-c2ccc3ncnc(Nc4ccc(OCc5cccc(F)c5)c(Cl)c4)c3c2)cs1,102
20,COc1ccc(-c2cc(=O)c3c(O)cc(O[C@@H]4O[C@H](CO[C@@H]5O[C@@H](C)[C@H](O)[C@@H](O)[C@H]5O)[C@@H](O)[C@H](O)[C@H]4O)cc3o2)cc1O [Diosmin],106 ± 2.2
21,COc1cc(Nc2ncc(F)c(Nc3ccc4c(n3)N(COP(=O)(O)O)C(=O)C(C)(C)O4)n2)cc(OC)c1OC,82.8
22,COc1cc(Nc2ncc(F)c(Nc3ccc4c(n3)N(COP(=O)(O)O)C(=O)C(C)(C)O4)n2)cc(OC)c1OC [R788 (Fostamatinib)],78.4
23,COC1=C2C[C@@H](C)C[C@H](OC)[C@H](O)[C@@H](C)/C=C(\C)[C@H](OC(N)=O)[C@@H](OC)/C=C\C=C(/C)C(=O)NC(=CC1=O)C2=O [Geldanamycin],92.4 ± 6.7
24,CCOC(=O)c1ncc2[nH]c3cccc(OC(C)C)c3c2c1C,95.8
25,CN1CC2c3ccccc3Oc3ccc(Cl)cc3C2C1 (centres undefined) [Asenapine maleate],99.9 ± 1.1
26,CN1CC2c3ccccc3Oc3ccc(Cl)cc3C2C1 (centres undefined) [Asenapine],103
27,CNC(=O)Nc1ccc(-c2nc(N3CC4CCC(C3)O4)c3cnn(C4CCC5(CC4)OCCO5)c3n2)cc1,67.2

row,SMILES,mean cytoplasmic OPP incorporation
1,CC1CS(=O)(=O)CCN1/N=C/c1ccc([N+](=O)[O-])o1 (centres undefined) [Nifurtimox],103
2,c1ccc2[nH]c(-c3cscn3)nc2c1 [Tiabendazole],91.1
3,Cn1cc(-c2ccc3nnc(C(F)(F)c4ccc5ncccc5c4)n3n2)cn1,110
4,CN1[C@@H](CC(=O)c2ccccc2)CCC[C@H]1C[C@H](O)c1ccccc1 [Lobeline hydrochloride],95.3
5,CCC(CC)CC1(C(=O)Nc2ccccc2SC(=O)C(C)C)CCCCC1 [Dalcetrapib (JTT-705)],103
6,CNC(=O)[C@H]1O[C@@H](n2cnc3c(NCc4cccc(I)c4)ncnc32)[C@H](O)[C@@H]1O,102
7,C=C[C@H]1CN2CC[C@H]1C[C@@H]2[C@@H](O)c1ccnc2ccc(OC)cc12 [Quinidine hydrochloride monohydrate],108
8,C[C@]12CC[C@H]3C(=CCc4cc(O)ccc43)[C@@H]1CCC2=O [Equilin],102
9,CCN(C(=O)CO)[C@H]1CN(/C(=N\C#N)Nc2cccc(OC(F)F)c2)N=C1c1ccc(Cl)c(Cl)c1,107
10,CN1C(C(=O)Nc2ccccn2)=C(O)c2sccc2S1(=O)=O [Tenoxicam],104
11,Cc1ncc([N+](=O)[O-])n1CC(O)CCl (centres undefined) [Ornidazole],83.3
12,NC(=O)N1c2ccccc2CC(O)c2ccccc21 (centres undefined) [Licarbazepine],106
13,Cc1cccc(C)c1NC(=O)C1CCCCN1C (centres undefined) [Mepivacaine hydrochloride],96.1
14,CCc1nc(-c2cccc(C)c2)c(-c2ccnc(NC(=O)c3ccccc3)c2)s1,110.3 ± 0.3
15,O=C(CCCCCCC(=O)NO)NO [Suberoyl bis-hydroxamic acid],88.4
16,CN(C)CCC=C1c2ccccc2CCc2ccccc21 [Amitryptiline hydrochloride],102
17,Cc1ccnc2c1NC(=O)c1cccnc1N2C1CC1 [Nevirapine (Viramune)],107
18,Cc1[nH]c(=O)c(C#N)cc1-c1ccncc1 [Milrinone],94.4
19,CC(C)[C@H](CO)Nc1nc(Nc2cccc(Cl)c2)c2ncn(C(C)C)c2n1 [Purvalanol A],99.2
20,Cn1c(=O)c2[nH]cnc2n(C)c1=O [Aminophylline],109
21,CS(=O)(=O)c1ccc(C2=C(c3ccccc3)C(=O)OC2)cc1 [Rofecoxib],94.3
22,COc1cc2c(cc1OC)CN(CCc1ccc(NC(=O)c3cc(OC)c(OC)cc3NC(=O)c3cnc4ccccc4c3)cc1)CC2 [Tariquidar],115
23,"FC(F)(F)c1cc(COC2CCCNC2c2ccccc2)cc(C(F)(F)F)c1 [L-733,060 hydrochloride]",108
24,CN(C(=O)c1ccc(F)cc1C(F)(F)F)C1CCN(c2nnc(-c3ccnn3C)c3ccccc23)CC1,109
25,COc1cc(Cc2cnc(N)nc2N)cc(OC)c1OC [Trimethoprim],98.3
26,CN1CCC(c2c(O)cc(O)c3c(=O)cc(-c4ccccc4Cl)oc23)C(O)C1 (centres undefined) [Flavopiridol (Alvocidib) HCl],58.4
27,CCN(CC)CCOC(=O)C(c1ccccc1)C1CCCCC1 (centres undefined) [Drofenine hydrochloride],101

row,SMILES,mean cytoplasmic OPP incorporation
1,COc1ccc([C@H]2CNC(=O)C2)cc1OC1CCCC1 [S- (+)-Rolipram],111
2,COc1ccc([C@H]2CNC(=O)C2)cc1OC1CCCC1 [(S)-(+)-Rolipram],95.8
3,COc1cc2c(cc1OC)C(=O)C(CC1CCN(Cc3ccccc3)CC1)C2 (centres undefined) [Donepezil HCl (Aricept)],108
4,CCCCC(CC)CN1CN(CC(CC)CCCC)CC(C)(N)C1 (centres undefined) [Hexetidine],100
5,C=CC(=O)c1ccc2ccccc2c1,100
6,NS(=O)(=O)c1cccc2c1c([N+](=O)[O-])cc1nc(O)c(O)nc12 [NBQX disodium salt],105
7,NS(=O)(=O)c1cccc2c1c([N+](=O)[O-])cc1nc(O)c(O)nc12,106
8,N#CC(=C(/N)Sc1ccccc1N)/C(C#N)=C(/N)Sc1ccccc1N,93.9
9,CO[C@@]1(NC(=O)Cc2cccs2)C(=O)N2C(C(=O)O)=C(COC(N)=O)CS[C@@H]21 [Cefoxitin sodium salt],96.2
10,CC(=O)c1ccc2c(c1)N(CCCN1CCC(CCO)CC1)c1ccccc1S2 [Piperacetazine],101
11,COc1ccccc1-c1cc(Nc2cccc(CS(N)(=O)=O)c2)ncn1,94.4
12,CC1(COc2ccc3c(c2)ncn3-c2ccc3cccc(N4CCC(N)CC4)c3n2)COC1,59.3
13,CNCC[C@H](Oc1cccc2ccccc12)c1cccs1 [Duloxetine HCl (Cymbalta)],105
14,O=C(CCCN1CCC(O)(c2ccc(Br)cc2)CC1)c1ccc(F)cc1 [Bromperidol],93.5
15,C[C@@H](Oc1cc(-n2cnc3ccc(CN4CCN(C)CC4)cc32)sc1C(N)=O)c1ccccc1C(F)(F)F,121
16,N=C(N)NC(=O)c1nc(Cl)c(N)nc1N [Amiloride hydrochloride],96.8
17,N=C(N)NC(=O)c1nc(Cl)c(N)nc1N [Amiloride hydrochloride dihydrate],101
18,O=[N+]([O-])c1cccc2c(Br)[nH]nc12 [3-Bromo-7-nitroindazole],91.4
19,CC(Cc1ccccc1)(NC(=O)CN)c1ccccc1 (centres undefined) [Remacemide hydrochloride],120
20,CC(C)(C)C(=O)OCOC(=O)[C@@H]1N2C(=O)[C@@H](NC(=O)[C@H](N)c3ccccc3)[C@H]2SC1(C)C [Pivampicillin],99.8
21,CC1(C)Oc2ccc(C#N)cc2[C@H](N2CCCC2=O)[C@H]1O [Cromakalim],98.1
22,CCCCOc1c(C(=O)c2c(F)cc(C)cc2F)c[nH]c2nncc1-2,98 ± 3
23,CCC(=O)N1CCOc2c(cc(-c3ccc(OC)c(OC)c3)cc2OC[C@H]2CCCN(C)C2)C1,112
24,O=C1NCN(c2ccccc2)C12CCN(CCCC(c1ccc(F)cc1)c1ccc(F)cc1)CC2 [Fluspirilene],112 ± 2.6
25,O=C1NCN(c2ccccc2)C12CCN(CCCC(c1ccc(F)cc1)c1ccc(F)cc1)CC2 [Fluspirilen],103

# Reference: the supplement of paper PMC8183993
